Assay results reported in PubChem BioAssay AID1768 (National Center for Advancing Translational Sciences (NCATS), 2009).
Out of some 270,000 compounds screened, about 620 (0.23%) were called active. The inconclusive results got no clear call from the source; some entries with a clear call stand among them for comparison. Calls follow the shape of the dose curve; as a rule, active = well fitted inhibition curve with a large enough effect in the polarisation, with a control signal flat (not every such curve was filed as active); inconclusive = small, poorly fitted or top-dose-only effect, or effect the other way, or a change in a side signal; inactive = no such curve, though single readings can be large or run the other way; the % refers to the polarisation. Potencies of inconclusive entries are doubtful fits and often do not repeat. A note “side channel” means that the fit belongs to a control or component signal, not to the main read-out.

target: Menin (Homo sapiens) (UniProt O00255); assay: qHTS Assay for Inhibitors Targeting the Menin-MLL Interaction in MLL Related Leukemias: Competition With Texas Red Labeled MLL-derived Mutant Peptide; conditions: fluorescence polarization; FP activity change, negative = inhibition: at 61.6 µM (top of the series); as to FP activity change, negative = inhibition: % of control where 0% means no effect
Potency is read from the fitted curve at half-maximal effect; tags tell the direction and shape of the fitted curve or compound fluorescence and quenching.

Chain of UniProt O00255 (O00255 whole entry, looked up): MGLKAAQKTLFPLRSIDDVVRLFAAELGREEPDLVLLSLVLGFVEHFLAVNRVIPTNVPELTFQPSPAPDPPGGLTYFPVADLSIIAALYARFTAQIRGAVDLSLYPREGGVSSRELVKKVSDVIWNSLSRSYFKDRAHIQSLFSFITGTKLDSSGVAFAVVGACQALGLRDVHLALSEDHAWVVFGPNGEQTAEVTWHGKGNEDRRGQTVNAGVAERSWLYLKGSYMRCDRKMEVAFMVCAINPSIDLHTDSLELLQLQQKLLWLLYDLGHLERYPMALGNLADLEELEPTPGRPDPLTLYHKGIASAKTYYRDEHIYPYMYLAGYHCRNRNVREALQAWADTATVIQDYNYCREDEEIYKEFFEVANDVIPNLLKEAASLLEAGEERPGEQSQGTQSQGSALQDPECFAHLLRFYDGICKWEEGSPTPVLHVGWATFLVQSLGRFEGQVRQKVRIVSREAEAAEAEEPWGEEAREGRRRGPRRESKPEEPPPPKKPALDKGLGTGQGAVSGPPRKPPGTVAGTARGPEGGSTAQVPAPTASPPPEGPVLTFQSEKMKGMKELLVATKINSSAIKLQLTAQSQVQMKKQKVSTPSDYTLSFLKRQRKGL

Structure (SMILES) | FP activity change, negative = inhibition | Potency
CC(=O)[O][Al][O]C(C)=O | inactive: 11% | 
CC(=O)Nc1ncc(Cc2cccc(Cl)c2Cl)s1 |  | inconclusive: 22.4 µM [inhibitor, single point]
Cc1nn(-c2nc3ccccc3s2)c(N)c1-c1ccc(Cl)cc1 | inactive: 5.4% | 
Cc1cc2[nH]c(=O)c(=O)[nH]c2cc1S(=O)(=O)N1CCN(c2cccc(Cl)c2)CC1 | inactive: 43.3% | 
CC1(C)SC2c3ccccc3C(=O)N2[C@@H]1C(=O)O (some centres undefined) |  | inconclusive: 39.8 µM [inhibitor, single point]
CN(/N=C/c1cc(Cl)ccc1O)C1=NS(=O)(=O)c2ccccc21 |  | inconclusive: 39.8 µM [fluorescent, single point]
O=C(CNC(=O)c1ccco1)N=Nc1c(O)[nH]c2ccc([N+](=O)[O-])cc12 |  | inconclusive: 22.4 µM [quencher, side channel, single point]
C#CCOCCOCCOCCNc1nc(N2CCN(C(=O)[C@H]([C@@H](C)CC)n3cc([C@@H](N)Cc4ccc(O)cc4)nn3)CC2)nc(N2CCN(C(=O)[C@H](CCCCN)n3cc([C@@H](N)CO)nn3)CC2)n1 |  | inconclusive: 8.91 µM [fluorescent, side channel, full curve]
CCCOc1ccccc1-n1sc2c(c1=S)-c1cc(OC)cc3c1N(C(=O)C3=O)C2(C)C |  | inconclusive: 39.8 µM [quencher, side channel, single point]
CC(NCc1cc(Br)ccc1OCC(=O)NCc1ccccc1)c1ccccc1 (centres undefined) |  | inconclusive: 3.16 µM [fluorescent, side channel, full curve]
Cc1ccc2c(CC(=O)OCC(=O)Nc3ccc(Cl)cn3)coc2c1 |  | inconclusive: 35.5 µM [quencher, side channel, single point]
CC1(O)CC(c2ccc(Cl)cc2)=NN1C(=O)c1ccc([N+](=O)[O-])cc1 (centres undefined) |  | inconclusive: 11.2 µM [quencher, side channel, partial curve]
O=C(Nc1cccc([N+](=O)[O-])c1)c1ccc(N2CCCC2=O)cc1 |  | inconclusive: 28.2 µM [quencher, side channel, single point]
O=[N+]([O-])c1ccc(O)c(/C=N/Nc2ccccc2Cl)c1 |  | inconclusive: 35.5 µM [quencher, side channel, single point]
Cc1ccc2c(-c3csc(N)n3)c[nH]c2c1 |  | inconclusive: 22.4 µM [quencher, side channel, partial curve]
COc1cc(/C=C(\C#N)C(=O)Nc2ccccc2C(=O)O)cc(Cl)c1OC |  | inconclusive: 14.1 µM [quencher, side channel, partial curve]
Cn1ccnc1SCC(=O)c1ccc([N+](=O)[O-])cc1 |  | inconclusive: 35.5 µM [quencher, side channel, single point]
Cc1ccc(-c2nn(C)c(=O)c3ccccc23)cc1CNC(=O)CN1CCOCC1 |  | inconclusive: 22.4 µM [inhibitor, single point]
COc1ccccc1CN1C(=O)c2ccncc2C1=O |  | inconclusive: 1.78 µM [inhibitor, partial curve]
O=C(NCCCOc1cccc(CN2CCCCC2)c1)c1ccc(Cl)c(Cl)c1 | inactive: -4.22% | 

Structure (SMILES) | FP activity change, negative = inhibition | Potency
Cc1ccc2cc(C(c3nnnn3C3CCCC3)N3CCOCC3)c(=O)[nH]c2c1C (centres undefined) | inactive: -1.39% | 
COc1ccccc1C(CCNCc1ccc(N(C)C)cc1)c1ccc(OC(C)C)cc1 (centres undefined) |  | inconclusive: 2.51 µM [fluorescent, side channel, full curve]
Cc1cc(NC(=O)Cn2nnc(-c3ccccc3NC(=O)c3ccccc3F)n2)no1 |  | inconclusive: 39.8 µM [fluorescent, side channel, single point]
NC(=O)CSc1nnc(-c2cc(-c3cccs3)nc3ccccc23)o1 |  | inconclusive: 8.91 µM [quencher, side channel, full curve]
CCOc1ccc2ncc(C(=O)c3ccc(OC)cc3)c(N3CCN(CC)CC3)c2c1 | inactive: -25.8% | 
Cn1c(-c2csc(-c3ccccc3)n2)n[nH]c1=S |  | inconclusive: 20 µM [fluorescent, side channel, single point]
Cc1ccc(NC(=O)CN(C)C2CCCCC2)cc1Br |  | inconclusive: 35.5 µM [inhibitor, partial curve]
O=S(=O)(c1ccc(NC(=S)N/N=C/c2c3ccccc3cc3ccccc23)cc1)N1CCOCC1 |  | inconclusive: 12.6 µM [quencher, side channel, partial curve]
CCn1c(=NC(=O)c2ccc(S(=O)(=O)N3CCOCC3)cc2)sc2cccc(OC)c21 | inactive: 18.7% | 
O=C1N/C(=C/c2cccn2-c2ccccc2)C(=O)N1c1cccc(Cl)c1 |  | inconclusive: 28.2 µM [quencher, side channel, single point]
COc1ccc(C)cc1N(C(=O)COc1ccccc1)c1nc2ccccc2s1 | inactive: -15.1% | 
O=C1C(=C2SCCCS2)CC/C1=C\c1ccc(F)cc1 |  | inconclusive: 15.8 µM [fluorescent, side channel, partial curve]
CCOc1ccc(CN(C)C(=O)CNC(=O)Cc2cccc3ccccc23)cc1 |  | inconclusive: 39.8 µM [fluorescent, side channel, single point]
CC[C@H](CC[C@@H](C)C1CC[C@H]2[C@@H]3CC=C4C[C@@H](O)CC[C@]4(C)[C@H]3CC[C@]12C)C(C)C (some centres undefined) | inactive: 1.96% [at 24.8 µM] | 
COc1cc2c(cc1NCc1ccc3c(c1)OCO3)oc1ccccc12 |  | inconclusive: 10 µM [quencher, side channel, partial curve]
COCCSc1nnc(NC(=O)c2ccc([N+](=O)[O-])cc2)s1 |  | inconclusive: 39.8 µM [quencher, side channel, single point]
CCOc1ccc(/C=C(\C#N)C(=O)c2c(C)[nH]c3ccccc23)cc1OC |  | inconclusive: 28.2 µM [quencher, side channel, single point]
CCn1c(N)c(C(=O)Nc2ccccc2C(=O)OC)sc1=S |  | inconclusive: 14.1 µM [quencher, side channel, partial curve]
Cc1nc2nc(C)c(CCC(=O)N3CCOCC3)c(C)n2n1 |  | inconclusive: 5.01 µM [inhibitor, single point]
O=C1C2C3C=CC(C4CC34)C2C(=O)N1Cc1ccccc1 (centres undefined) | inactive: -2.09% | 

Structure (SMILES) | FP activity change, negative = inhibition | Potency
CCOC(=O)C1=C(CSc2nc3ccccc3s2)NC(=O)NC1c1ccc(OC)cc1 (centres undefined) |  | inconclusive: 3.16 µM [inhibitor, partial curve]
CC(/C=C1\SC(=S)N(NC(=O)c2ccccc2C)C1=O)=C\c1ccccc1 |  | inconclusive: 20 µM [quencher, side channel, single point]
CCOc1ccc(NC(=O)c2ccc(Br)o2)c([N+](=O)[O-])c1 |  | inconclusive: 17.8 µM [quencher, side channel, single point]
CC(=O)N1CCN(C(=O)C2(NC(=O)Nc3ccc(C)cc3)CCCCC2)CC1 |  | inconclusive: 3.16 µM [inhibitor, partial curve]
CC(NC(=S)NCCc1ccccc1)C(c1cccs1)N1CCN(Cc2ccccc2)CC1 (centres undefined) | inactive: 2.45% | 
Cc1ccc2c(COC(=O)c3ccccc3Br)cc(=O)oc2c1 |  | inconclusive: 39.8 µM [fluorescent, side channel, single point]
Cc1ccc(CSc2nnc(SCC(=O)N/N=C/C=C/c3ccco3)s2)cc1 |  | inconclusive: 31.6 µM [quencher, side channel, single point]
COC(=O)c1sc(S(=O)(=O)NCc2ccccc2)c(C(=O)OC)c1C |  | inconclusive: 39.8 µM [fluorescent, side channel, single point]
CC(C)c1csc(CN2CCC(CO)(Cc3ccccc3)CC2)n1 |  | inconclusive: 25.1 µM [inhibitor, single point]
COc1ccc(C2/C(=C(/O)c3ccccc3)C(=O)C(=O)N2CCN2CCOCC2)c(OC)c1 (centres undefined) |  | inconclusive: 39.8 µM [inhibitor, single point]
O=C(O)COc1ccccc1/C=N/Nc1ccc(S(=O)(=O)N2CCOCC2)cc1[N+](=O)[O-] |  | inconclusive: 25.1 µM [quencher, side channel, partial curve]
Cc1ccc(S(=O)(=O)c2nnn3c2nc(N2CCOCC2)c2ccccc23)cc1 |  | inconclusive: 25.1 µM [fluorescent, side channel, single point]
O=C(O)c1cccc(S(=O)(=O)Nc2ccc3oc(=O)sc3c2)c1 | inactive: 16.1% | 
COc1cccc(NCc2ccc([N+](=O)[O-])s2)c1 |  | inconclusive: 22.4 µM [quencher, side channel, partial curve]
C=CCOn1c(C)c(C(C)=O)c2c3nonc3ccc21 |  | inconclusive: 11.2 µM [inhibitor, partial curve]
CCOc1cccc2sc(N(CCCN(C)C)C(=O)c3ccc(S(=O)(=O)N(CC)Cc4ccccc4)cc3)nc12 |  | inconclusive: 2.24 µM [fluorescent, side channel, full curve, poor fit]
Cc1cc(O)cc(O)c1C(=O)Cc1cnn(-c2ccccc2)c1 |  | inconclusive: 22.4 µM [quencher, side channel, partial curve]
COc1ccc(OC)c(NC(=O)CCc2c[nH]c3ccccc23)c1 |  | inconclusive: 31.6 µM [quencher, side channel, single point]
c1ccc(Nc2nc3ccccc3n3nnnc23)cc1 |  | inconclusive: 28.2 µM [quencher, side channel, partial curve]
